The list shows a part of the results. At the low end of the ranking the order means little.
Each sequence was assayed against GST-SBP-SLBP (stem-loop binding protein) (UniProt Q14493) (assay: targeted RNA Bind-n-Seq). Conditions: RBNS binding buffer: 25 mM Tris pH 7.5, 150 mM KCl, 3 mM MgCl2, 0.1% Tween, 0.5 mg/mL BSA, 1 mM DTT; 27 nM protein, 750 pM RNA pool; temperature not stated; high values mean tight binding.
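Also: DESeq read counts versus GST-SBP nonspecific binding control pulldown.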

| Sequence | binding signal (log2 fold change) |
| --- | --- |
| GGUCACGUCUCAAUCAACUCAUUUUCCAGGGAAAUCCCUGGUAUACUCAACAGCUCGCAGUCAAG | 0.0805 |
| GGUCACGUCUCAAUCAACUCAUCCCCCAGGGAAAUCCCUGGCAAUUUCAACAGCUCGCAGUCAAG | 0.00128 |
| GGUCACGUCUCAAUCAACUCAUUUCCAGGAGUUUCCUCCUGCUAUUUCAACAGCUCGCAGUCAAG | 0.0758 |
| GGUCACGUCUCAAUCAACUCUCAAGAGGGGGGGAAAACCCCUUUACCCUCAUUCUCAACAGCUCGCAGUCAAG | 0.271 |
| GGUCACGUCUCAAUCAACUCUUAAGAGGGGGGGAAAACCCCUUUGCCCUCAUACUCAACAGCUCGCAGUCAAG | 0.174 |
| GGUCACGUCUCAAUCAACUCUUCUUCAGGAGUUUACUCCUGUUAAUUCAACAGCUCGCAGUCAAG | 0.15 |
| GGUCACGUCUCAAUCAACUCUCAAGAGGGGGGGAAAACCCCUUUACCCUCAUACUCAACAGCUCGCAGUCAAG | -0.172 |
| GGUCACGUCUCAAUCAACUCUUCUCCCAGGGAAAACCCUGGUAUACUCAACAGCUCGCAGUCAAG | -0.175 |
| GGUCACGUCUCAAUCAACUCCCCAGAGGGGGGGAAAACCCCUUUACCCUCAUCUUCAACAGCUCGCAGUCAAG | -0.195 |
| GGUCACGUCUCAAUCAACUCACACGAGGGGGGGAAAACCCCUUUACCCUCCAAAUCAACAGCUCGCAGUCAAG | -0.33 |
| GGUCACGUCUCAAUCAACUCUUUUUCCAGGGAAAACCCUGGCUUACUCAACAGCUCGCAGUCAAG | 0.296 |
| GGUCACGUCUCAAUCAACUCUUUUCCCAGGGAAACCCCUGGCAUUUUCAACAGCUCGCAGUCAAG | -0.108 |
| GGUCACGUCUCAAUCAACUCAUUCUCAGGAGUUUCCUCCUGCAUACUCAACAGCUCGCAGUCAAG | -0.00799 |
| GGUCACGUCUCAAUCAACUCAACUUCCAGGGAAACCCCUGGUUAAUUCAACAGCUCGCAGUCAAG | -0.289 |
| GGUCACGUCUCAAUCAACUCAUCGCCAGGAGUUUUCUCCUGUAAACUCAACAGCUCGCAGUCAAG | -0.0203 |
| GGUCACGUCUCAAUCAACUCCAUGGAGGGGGGGAAAACCCCUUUACCCUCAUCUUCAACAGCUCGCAGUCAAG | -0.353 |
| GGUCACGUCUCAAUCAACUCAAUUCCCAGGGAAACCCCUGGCAUAGUCAACAGCUCGCAGUCAAG | 0.0706 |
| GGUCACGUCUCAAUCAACUCGCAAGAGGGGGGGAAAACCCCUUUACCCUCCACAUCAACAGCUCGCAGUCAAG | 0.262 |
| GGUCACGUCUCAAUCAACUCUUCUUCAGGAGUUUCCUCCUGUAAUCUCAACAGCUCGCAGUCAAG | 0.115 |

| Sequence | binding signal (log2 fold change) |
| --- | --- |
| GGUCACGUCUCAAUCAACUCUUCUCCAGGAGUUUACUCCUGCAUUCUCAACAGCUCGCAGUCAAG | 0.0235 |
| GGUCACGUCUCAAUCAACUCUUUCCCCAGGGAAACCCCUGGUAAACUCAACAGCUCGCAGUCAAG | 0.0259 |
| GGUCACGUCUCAAUCAACUCAAUCUCAGGAGUUUUCUCCUGCUAUCUCAACAGCUCGCAGUCAAG | -0.0427 |
| GGUCACGUCUCAAUCAACUCUUAAGAGGGGGGGAAAACCCCUUUACCCUCGUCCUCAACAGCUCGCAGUCAAG | -0.0547 |
| GGUCACGUCUCAAUCAACUCAGUCCCAGGAGUUUUCUCCUGUUAUUUCAACAGCUCGCAGUCAAG | 0.0926 |
| GGUCACGUCUCAAUCAACUCUCAAGAGGGGGGGAAAACCCCUUUACCCUCAUUAUCAACAGCUCGCAGUCAAG | 0.622 |
| GGUCACGUCUCAAUCAACUCAUUCCCCAGGGAAACCCCUGGUUAUUUCAACAGCUCGCAGUCAAG | -0.127 |
| GGUCACGUCUCAAUCAACUCAGUUCCCAGGGAAACCCCUGGCAUUUUCAACAGCUCGCAGUCAAG | 0.00216 |
| GGUCACGUCUCAAUCAACUCAAUCUCAGGAGUUUUCUCCUGCAUAGUCAACAGCUCGCAGUCAAG | 0.0697 |
| GGUCACGUCUCAAUCAACUCUUUCCCAGGAGUUUCCUCCUGCAAUUUCAACAGCUCGCAGUCAAG | -0.0135 |
| GGUCACGUCUCAAUCAACUCCUACGAGGGGGGGAAAACCCCUUUACCCUCUACAUCAACAGCUCGCAGUCAAG | -0.274 |
| GGUCACGUCUCAAUCAACUCAAUUUCAGGAGUUUACUCCUGUUUAUUCAACAGCUCGCAGUCAAG | -0.0625 |
| GGUCACGUCUCAAUCAACUCUUAAGAGGGGGGGAAAACCCCUUUGCCCUCGUCAUCAACAGCUCGCAGUCAAG | -0.0599 |
| GGUCACGUCUCAAUCAACUCAUCGUCCAGGGAAAGCCCUGGUAAUUUCAACAGCUCGCAGUCAAG | -0.225 |
| GGUCACGUCUCAAUCAACUCAGUCCCCAGGGAAAUCCCUGGCUUAUUCAACAGCUCGCAGUCAAG | 0.119 |
| GGUCACGUCUCAAUCAACUCCUUAGAGGGGGGGAAAACCCCUUUACCCUCCGUUUCAACAGCUCGCAGUCAAG | -0.0943 |
| GGUCACGUCUCAAUCAACUCUUCUCCAGGAGUUUUCUCCUGUAAACUCAACAGCUCGCAGUCAAG | -0.118 |
| GGUCACGUCUCAAUCAACUCUAUCCCAGGAGUUUUCUCCUGUUAUCUCAACAGCUCGCAGUCAAG | 0.083 |

Reference: article PMC5892938
